Values marked as one replicate rest on one cluster of the flow cell; about a third of the high ones do not repeat.

For the data set, the system named is ATP. The data set can be described thus: switch fluorescence ratio, 500 uM ATP over buffer (Cy3 cluster intensity, sum of 5 cycles each) (fold (ratio)); higher = stronger signal-on switching upon ATP binding; sequences stand for … in TCGTCGGCAGCGTCAGATGTGTATAAGAGACAGTTTTTTTTTTTTTTTTTTTTTTTTT…TC. The settings on record: aptamer strand: ATP DNA aptamer (quencher-CACCTGGGGGAGTATTGCGGAGGAAGG + anchor), 100 nM annealed; ATP concentration: 500 uM; one replicate. The method in brief:
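Per cluster, summed Cy3 intensity from the target cycles was divided by that from the buffer cycles to give the fluorescence ratio, then averaged per switch-domain sequence. Clusters outside 100-1000 RFU were excluded. The Cy3-labelled switching-strand clusters, on a modified Illumina MiSeq flow-cell, were annealed to 100 nM quencher-labelled ATP aptamer and imaged in selection buffer, then after 15 min with 500 uM ATP at 22 °C, for five cycles with NaOH stripping and re-annealing between them.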
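Note: ATP exposure 15 min at 22 °C before imaging.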

Consider CATCGAGAAT, for which the switch fluorescence ratio is 0.988. On to TCAGGCGTGG, for which the switch fluorescence ratio came to 0.993. For GGTTCGACC the value was 0.999; for AGTGGTTTTA, 0.984.

For CAGGTCGAC, the switch fluorescence ratio was found to be 0.979. Regarding TCCTACAAA, the switch fluorescence ratio was determined as 1.27. Under TCACATGTTT stands 0.987; under CAGGATGGGG, 0.999; under ACGTAGTTGC, 1.07. For TTTGTCAATA the value was 1.01. For CCCCGAAGGG the value was 0.961; for TCGCGGGCTG, 0.98; for TTCGGTACGG, 0.985.

Regarding CGAGGTGAG, the switch fluorescence ratio was determined as 1.

Consider AGTTACCAGT, for which the switch fluorescence ratio came out at 1.01. For ATACCTTGA the value was 0.988; for GTGAGGACCC, 0.939; for GCAGCTTT, 1.03. For TAGCCGTACA the value was 0.963; for TAATCCTGGT, 1.06. Under TCCCTTTCGG stands 0.979. For GCGATCGGTG, the switch fluorescence ratio amounted to 1.

Consider AAGTGGTGAG, for which the switch fluorescence ratio turned out to be 0.991. On to ACACGCACCC, for which the switch fluorescence ratio came to 1.57. Under AGAAGAGAAT stands 1.05; under GGAGAGTCAG, 1.02; under TCTATATTAA, 0.962. For CGGTGCTCTT the value was 0.972; for ATGTGGGATG, 0.974; for ACAACACCTT, 1.29. Turning to CCACTCACGG, the switch fluorescence ratio was found to be 1.62. Regarding GGAGCTGTAT, the switch fluorescence ratio was 1.08. Under GCTCTGGTTC stands 1.08; under CCCCTATGGG, 1.01. For GTTTATGGTA the value was 1.01; for CTATTCCTTC, 1.05; for CTCTTATTTC, 1.1. Under GTTGAGCAGG stands 1.1. In the case of TCCCTTCATT, the switch fluorescence ratio came out at 1.08. Under AGAAGTTAC stands 1.12; under TTGACGGT, 0.99. For TCATACCGGC the value was 1.08; for TGTAATGCTA, 0.999. For ATGCAGTTTG the value was 1. For the sequence ATGGGTCGT, the switch fluorescence ratio was 0.983. In the case of TTGCAAACAC, the switch fluorescence ratio is 1.47. For ACCTACATAT the value was 1.22; for TATGAGTTCT, 0.963; for TTCCCAGGAT, 4.33. Under TTCAGGTATT stands 1.01; under TGTGGGAGTG, 0.973.

TTCAGTATTG: the switch fluorescence ratio was 1.05. Under CGTCTTTATC stands 1.02; under TTTGAGCGCC, 0.96. Under TGCAGGAGCA stands 1.01. In the case of ATCGTCACTA, the switch fluorescence ratio was determined as 1.

In the case of CTTACAACGA, the switch fluorescence ratio turned out to be 1.02. Under GATGAAGCTA stands 1.02.

Turning to CAGGGGGCA, the switch fluorescence ratio came out at 1.03. For ACGTTTTGGG the value was 0.988.

Take CGAAAAAAGC: the switch fluorescence ratio stood at 1.13.

With GGAACTATAT, the switch fluorescence ratio came out at 0.977. Under TGTGCAAGCG stands 1. Under CATAGGTAGG stands 0.981; under ACGGAAAATA, 1.03. For TTGTCCGGTG the value was 1.05; for GGTTCCCGGG, 0.993; for GTTCGTCCCT, 0.987. AAGAATCCCC: the switch fluorescence ratio turned out to be 1.03. For ATATCTACGC the value was 1.13.

On to AGAGATGAA, for which the switch fluorescence ratio amounted to 0.953. For CAACCCCCGA the value was 1.33; for CCCGGCAGTC, 1.79. For TAAAGGTGCG, the switch fluorescence ratio came out at 1.04. For TAGGACAAAG the value was 0.965; for GGGCGGCGAA, 1.03. Under GAAAGGCAGG stands 1.03; under GGAGTTCAGC, 0.956. For GGCTCGCACA the value was 1.07; for TGTGGTTGAA, 0.987. On to AACAGGCGC, for which the switch fluorescence ratio was 0.957. For CGACATCTAA the value was 1.05; for CGTACGATG, 1.01; for TCTAGAGAAT, 0.981. For AGAGTTTACG the value was 1.01.

AATAGAGGGT: the switch fluorescence ratio was 1.01. Under TTAAGGAGTA stands 1.01; under GTAAGCGATT, 1; under ATGAAATAGA, 0.969. With TAACGCCG, the switch fluorescence ratio worked out at 1.11. For ATAGACTAGG the value was 1.02. For GATTTGGCCT the value was 1.21; for GTTATAGTAA, 0.95; for CACGGTTCTA, 0.997.

As for TTATAACTGT, the switch fluorescence ratio worked out at 0.959. For CCGGATCGTG the value was 0.941; for TGACCCAGAT, 0.958; for ATCGTTTGTC, 0.977.

TGGTGGCGA: the switch fluorescence ratio was 0.993. Under GTAGCGGGAT stands 1.02; under TAAAACGGCA, 1.03; under AAAATGCATG, 0.966. Under ACCATTTTGA stands 1.01. Under ACAGGGTTAG stands 1.01; under GCGTAGTTTG, 0.991. In the case of ATTACTTCTT, the switch fluorescence ratio was 1.04. For CTGTATGGTT the value was 0.987; for GACTGAGCG, 0.962; for CGTGGCACCA, 1.03. Under CTATAGTTCC stands 1.09. Turning to GAATGTGGGA, the switch fluorescence ratio was 1.01.

Turning to TAGGGGAGT, the switch fluorescence ratio stood at 0.992. For AGGAAAACGC the value was 1.06. Turning to ATTATTTGGC, the switch fluorescence ratio stood at 1.11. For CCATGGAGCA the value was 1.04; for GCCTCAAACA, 1.02; for CTACACCGGG, 1.19. For AATAGGCCTT the value was 0.992; for TTGCTAGGTG, 1.69.

On to TCTCGCGCCG, for which the switch fluorescence ratio is 0.992. For the sequence CAGGTGCGC, the switch fluorescence ratio is 1.15.

(Values after the supplement of paper PMC10126150.)
